Reference: the supplement of paper PMC10338343
± gives the standard deviation. The entries are a selection whose mix differs from that of the whole data set.

Test system: MIWI (PIWIL1) piRISC loaded with L1MC piRNA (30 nt)
Assay: pre-steady-state target cleavage rate (min^-1); MIWI and MILI are mouse PIWI proteins and EfPiwi is from a freshwater sponge; tags in brackets are library labels; higher = faster piRNA-guided slicing of the target
Settings: guide: L1MC piRNA 5'p-UAACUAAAUACUAUGCAAGCUGUAGGUCCU
Summary of the method: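 A transcribed, DNA-blocked target RNA library (0.1 nM) and 1 nM active affinity-purified piRISC bearing one synthetic guide were incubated in HEPES–potassium acetate buffer at 33 °C for 0–8 or 0–960 min, either with or without 500 nM GTSF1 partner protein. Uncleaved targets were sequenced, normalised to depth and to weakly complementary targets, and pooled over three trials, with k3 capped at 0.0001 min^-1. The pre-steady-state cleavage rate was derived with a burst-and-steady-state fit.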

[1] = auxiliary factor: 500 nM mouse GTSF1
[2] = auxiliary factor: none (no GTSF1)

Sequence	pre-steady-state target cleavage rate [1]	pre-steady-state target cleavage rate [2]
UCCUGGAACAGCUUGCAUAGUAUUUACGUUA	0.57 ± 0.038	0.0419 ± 0.0079
UCCACCUACAGCUUGCAUUGUAAUUAGUUA	0.372 ± 0.023	0.00906 ± 0.0022
AGGACCUACAGCUUGCCUAGUAUUUAGUUA	1.24 ± 0.054	0.0658 ± 0.012
AGGACCUACAGCUUGCAUACUAUUUUGUUA	0.22 ± 0.021	0.0206 ± 0.0035
AGGAGCUACAGCUUGCAUACUAUUUAGUUA	0.369 ± 0.012	0.0371 ± 0.0072
UCCACCUACAGCUAGCAUAGUAUAUAGUUA	0.419 ± 0.041	0.0063 ± 0.0024
UGGUCCUACAGCUUGCAUAGUAUUUAGUAA	0.777 ± 0.037	0.052 ± 0.0083
UCGAGCUACAGCUUGCAUAGAAUUUAGUUA	0.431 ± 0.034	0.0269 ± 0.0071
UCCAGGUACAGCUUGCAUAGUAUUUUCAAA	0.208 ± 0.036	0.00276 ± 0.0023
UCCUCCUACAGCUUGCUUAGUAUUAAGUUA	0.264 ± 0.027	0.00647 ± 0.0019
AGGACCUAGCAGCUUGCAUAGUAUUUAGUUA	1.21 ± 0.073	0.0735 ± 0.015
AGUGACCUACAGCUUGCAUAGUAUUUAGUUA	1.38 ± 0.056	0.0885 ± 0.015
UCCUGGAUGUGCUUGCAUAGUAUUUAGUAA	0.365 ± 0.031	0.0468 ± 0.011
UCCUGGUACAGCUUGCUUUGUAUUUAGUUA	0.119 ± 0.012	0.0105 ± 0.002
UCCACCUACAGCUUGCAUAGGAUUUAGUUA	0.0442 ± 0.0086	0.00647 ± 0.002
UGGAGCUACAGCUUGCAUAGUAUUUAGAUA	0.283 ± 0.039	0.0209 ± 0.0052
UCGACCUACAGCUUGCAUAGUAUUUACUAA	0.277 ± 0.032	0.0116 ± 0.0038
UCCUGAUACAGCUUGCAUAGUAUUUAGUUA	1.15 ± 0.046	0.0816 ± 0.017
UCCUGGAACUGCUUGCAUUGUAUUUAGUUA	0.361 ± 0.025	0.0171 ± 0.0056
UCCUGCAACAGCUUGCAUAGUAUUUACUUA	0.353 ± 0.032	0.0202 ± 0.0037
UCCUGGAUGGGCUUGCAUAGUAUUUAGUUA	0.71 ± 0.037	0.0651 ± 0.015
UGGACCUACAGCUUGCUUAGUAUUUAGAUA	0.477 ± 0.039	0.0131 ± 0.0027
AGGACCUACAGGUUGCAUAGUAUUAAGUUA	0.784 ± 0.069	0.0296 ± 0.0069
UCCACCUACAGCUUGCAUAGUAUCUAGUUA	0.488 ± 0.039	0.0248 ± 0.0038
UCCUCCUACAGCUUGCAUGUAUUUAGUUA	0.428 ± 0.051	0.00445 ± 0.0018

Sequence	pre-steady-state target cleavage rate [1]	pre-steady-state target cleavage rate [2]
UCCACCUACAGCUUGCAUACUAUUUAGUUA	0.373 ± 0.031	0.026 ± 0.0043
UCCUGGAUGAGCUUGUCAUAGUAUUUAGUUA	0.0704 ± 0.009	0.0036 ± 0.0025
UCCUGGAACAGCUAGCAUAGUAAUUAGUUA	0.369 ± 0.024	0.00836 ± 0.0027
UCCUGGAACAGCUAUGCAUAGUAUUUAGUUA	0.689 ± 0.043	0.0215 ± 0.0054
UCCUGGAUCAGCUUGCAUAGAAUAUAGUUA	0.0634 ± 0.014	0.00907 ± 0.0046
UCCUGGUACAGCUAGCUUAGUAUUUAGUUA	0.689 ± 0.045	0.0121 ± 0.0033
UCCUGCUAGAGCUUGCAUUGUAUUUAGUUA	0.62 ± 0.044	0.0241 ± 0.0055
AGGACCUACAGGUUGCAUACUAUUUAGUUA	0.314 ± 0.025	0.0215 ± 0.0038
AGGUCCUACAGCUUGCAUAGUAUUUAGAUA	0.383 ± 0.053	0.0483 ± 0.012
UCCUCCAACAGCUUGCAUUGUAUUUAGUUA	0.976 ± 0.031	0.0321 ± 0.0066
UCCUGCUACAGCUUGCAUAGUAUUUAAUUA	0.297 ± 0.035	0.0245 ± 0.0072
UCCUGGUACUGCUUGCAUAGUAUUUAGUUA	0.454 ± 0.054	0.0342 ± 0.0058
UCCUCCUACAGGUUGCAUAGUAUUUUGUUA	0.633 ± 0.054	0.0126 ± 0.0021
UCCACCUACAGCUUGCAUAGCAUUUAGUUA	0.314 ± 0.033	0.0209 ± 0.0038
UCCUGGAUGUGCUUGCAUAGUAUUUUCUUA	0.0246 ± 0.0091	0.00388 ± 0.0027
UCCUGGUACAGCUUGCGAUAGUAUUUAGUUA	0.0288 ± 0.0081	0.00377 ± 0.0034
UCCUGGAGCAGCUUGCAUAGUAUUUAGUUA	1.13 ± 0.044	0.0692 ± 0.013
UCCUGGAACAGCUUGCAUAGUUUUUAGAUA	0.0774 ± 0.017	0.0136 ± 0.0035
UCCUGGAUCAGCUCGCAUAGUAUUUAGUUA	1.27 ± 0.049	0.0288 ± 0.0077
UCCUGCUACAGCUUGCUUAGUAAUUAGUUA	0.512 ± 0.041	0.0104 ± 0.0033
UGGACCUACAGCUUGCAUACUAUUUAGUAA	0.127 ± 0.018	0.0142 ± 0.0041
UCCUCCUACAGCUUGCAUAGUAUAAAGUAA	0.207 ± 0.033	0.00274 ± 0.002
AGGACCUACAGCUUGCAUAGUAUUUAGAUUA	0.376 ± 0.034	0.0531 ± 0.0095
UCCUGGUACAGCUUGCAUAGUUUUUAGAUA	0.136 ± 0.043	0.00988 ± 0.0027
AGGACCUACUGCUUGCAUAGUAUUUACUUA	0.322 ± 0.031	0.0369 ± 0.0057
